# Measurements from the antibiotic and cytotoxicity screens of Wong et al. (2023).
# The list shows a part of the results.
# Key:
# HSkMC = human skeletal muscle cells; assay: cytotoxicity call (relative viability < 0.9); settings: 10 µM
# HepG2 = assay: cytotoxicity call (relative viability < 0.9); settings: 10 µM
# S. aureus RN4220 = assay: growth inhibition call (relative growth <= 0.2); settings: 50 µM
Compound,cytotoxicity call (HSkMC),cytotoxicity call (HepG2),growth inhibition call (S. aureus RN4220)
C[C@@H]1CN([C@@H](C)CO)C(=O)c2cccc(NS(C)(=O)=O)c2O[C@H]1CN(C)S(=O)(=O)c1cccs1,inactive,inactive,inactive
COCCOC(=O)N1C(=O)[C@@]2(c3cc(C#CCCO)ccc31)[C@H](C(=O)N1CCc3cc(OC)c(OC)cc3C1)[C@H]1C(=O)O[C@H](c3ccccc3)[C@H](c3ccccc3)N1[C@@H]2c1ccccc1OCCO,inactive,active,inactive
CC(C)(C)OC(=O)CC[C@]12N=C(c3ccc(OCCCO)cc3)O[C@H]1c1ccccc1CN(Cc1ccccc1)C2=O,inactive,inactive,inactive
O[C@@H]1[C@@H](O)[C@H](Nc2ccccc2)OC[C@H]1O,inactive,inactive,inactive
O=C(C[C@@H]1CC[C@@H]2[C@H](COC[C@@H](O)CN2S(=O)(=O)c2ccccc2)O1)NCCN1CCCC1,inactive,inactive,inactive
C[C@H](CO)N1C[C@H](C)[C@H](CN(C)C(=O)c2cnccn2)Oc2ncc(C#CCC3CCCC3)cc2C1=O,inactive,inactive,inactive
O=C(Nc1ccc(C(F)(F)F)cc1)Nc1ccc2c(c1)[C@@H]1C[C@@H](CC(=O)N3CCc4ccccc4C3)O[C@@H](CO)[C@@H]1O2,inactive,inactive,inactive
CC(=O)OC1CC2(C)C(CC(O)C3C4(C)CCC(O)C(C)C4CCC32C)C1=C(CCC=C(C)C)C(=O)O (configuration not stated),inactive,inactive,active
COc1ccc(S(=O)(=O)Nc2cccc3c2O[C@@H](CN(C)Cc2ccc(-c4ccccc4)cc2)[C@H](C)CN([C@@H](C)CO)C3=O)cc1,inactive,inactive,inactive
